The other results are listed elsewhere or left out. At the low end of the ranking, values are background and their order means little.

For this assay, the target named is T1, ELK1 (UniProt P19419).
T1 sequence: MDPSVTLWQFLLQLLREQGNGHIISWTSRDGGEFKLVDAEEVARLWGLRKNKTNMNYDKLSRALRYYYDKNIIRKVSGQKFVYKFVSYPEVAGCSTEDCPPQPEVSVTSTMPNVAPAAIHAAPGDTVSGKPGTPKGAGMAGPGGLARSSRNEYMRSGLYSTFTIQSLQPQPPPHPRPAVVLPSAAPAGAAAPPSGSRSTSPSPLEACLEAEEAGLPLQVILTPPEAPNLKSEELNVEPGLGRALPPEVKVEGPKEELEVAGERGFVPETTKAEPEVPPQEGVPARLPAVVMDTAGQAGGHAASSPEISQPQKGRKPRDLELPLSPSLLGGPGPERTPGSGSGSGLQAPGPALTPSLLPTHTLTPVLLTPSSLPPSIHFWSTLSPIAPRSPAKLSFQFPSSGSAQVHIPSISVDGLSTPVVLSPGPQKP
Briefly: custom PBM. To be noted: custom protein-binding microarray; buffer, salt, pH and temperature not stated; high values mean tight binding; double strand, one strand shown.
Turning to “GGAAAAAGGCCCAAGGTAACACCGGAAGTGGGCTTAGTCTTGATTCGCTTGACGCTGCTG”, the binding signal (log fluorescence intensity) is 10.8.

For the sequence “TACTGGCTTATATATGCGAATGCACATGAATAGACCGTCTTGATTCGCTTGACGCTGCTG”, the binding signal (log fluorescence intensity) turned out to be 8.78.

Consider “CACAATTTTCACAGTAATGTAGCACGCGTAACTCCTGTCTTGATTCGCTTGACGCTGCTG”, for which the binding signal (log fluorescence intensity) was 8.82.

In the case of “CTGGGACTTGACCCAACTCTGCAACGTGGGTCGTTTGTCTTGATTCGCTTGACGCTGCTG”, the binding signal (log fluorescence intensity) worked out at 8.92.

Regarding “GGAAAAAGGCCCAGGGTAACACCGGCAGTGGGCTTAGTCTTGATTCGCTTGACGCTGCTG”, the binding signal (log fluorescence intensity) worked out at 8.99.

As to “TCCAGCTACCAGCTCCACCCACTTCAGGCCTTGTAGGTCTTGATTCGCTTGACGCTGCTG”, the binding signal (log fluorescence intensity) stood at 8.99.

In the case of “TGTCGGGTAAGGGAATGTAGATCACGTGGATGAAAAGTCTTGATTCGCTTGACGCTGCTG”, the binding signal (log fluorescence intensity) was found to be 8.97.

In the case of “TAAAGGGAAGACCGTTGTGGTAGTTCCGGGTATTAAGTCTTGATTCGCTTGACGCTGCTG”, the binding signal (log fluorescence intensity) stood at 11.

With “CACAATTTTTACAGTAATGTAGCACGCGTAAGTCCTGTCTTGATTCGCTTGACGCTGCTG”, the binding signal (log fluorescence intensity) was found to be 8.86.

As to “GGAAAAAGGCCCAGGGAAACACCGGAAGTGGGCTTAGTCTTGATTCGCTTGACGCTGCTG”, the binding signal (log fluorescence intensity) worked out at 11.4.

With “TGTCGTGTAAGGGAATGTAGATCACGTGAATGAAAAGTCTTGATTCGCTTGACGCTGCTG”, the binding signal (log fluorescence intensity) was determined as 8.89.

For “AAGCATAGGACTTCTTCCCTGAAGCAATTGATAACCGTCTTGATTCGCTTGACGCTGCTG”, the binding signal (log fluorescence intensity) came out at 8.87.

With “TACAGGGAAGACGGTTGTGGTAGTTCCGGGTATTAAGTCTTGATTCGCTTGACGCTGCTG”, the binding signal (log fluorescence intensity) turned out to be 11.1.

On to “TGTCGGGTAAGGGAATGTAGATCACGTGAAGGAAAAGTCTTGATTCGCTTGACGCTGCTG”, for which the binding signal (log fluorescence intensity) amounted to 8.84.

Regarding “CGGAAGTGTCGTAAACGTCGGATATTCGGTTCTTCTGTCTTGATTCGCTTGACGCTGCTG”, the binding signal (log fluorescence intensity) turned out to be 9.16.

In the case of “CGGAAGTGTCGTACACGTCGGATATCCGGTTCTTCTGTCTTGATTCGCTTGACGCTGCTG”, the binding signal (log fluorescence intensity) worked out at 12.2.

In the case of “GGAAAAAGGCCCAGGGTAACGCCGGAAGTGGGCTTAGTCTTGATTCGCTTGACGCTGCTG”, the binding signal (log fluorescence intensity) was 10.6.

As for “CGGAAGTGTCGTAAACGTCAGATATCCGGTTCTTCTGTCTTGATTCGCTTGACGCTGCTG”, the binding signal (log fluorescence intensity) was found to be 11.2.

As to “TACTGACTTATATATGCCAATGCACATGAATAGACCGTCTTGATTCGCTTGACGCTGCTG”, the binding signal (log fluorescence intensity) came out at 8.93.

“TACTGACATATATATGCGAATGCACATGAATAGACCGTCTTGATTCGCTTGACGCTGCTG”: the binding signal (log fluorescence intensity) is 8.78.

Turning to “TAAAGGGAAGATGGTTGTGGTAGTTCCGGGTATTAAGTCTTGATTCGCTTGACGCTGCTG”, the binding signal (log fluorescence intensity) stood at 10.9.

On to “TACTGACTTATATATGCGAATGCACATGAATAAACCGTCTTGATTCGCTTGACGCTGCTG”, for which the binding signal (log fluorescence intensity) turned out to be 8.87.

Regarding “GTTGCTGCGGTGCATACCCCACCGGATGTGACCCCGGTCTTGATTCGCTTGACGCTGCTG”, the binding signal (log fluorescence intensity) is 10.2.

As for “CACAATTTTTACAGTAAGGTAGCACGCGTAACTCCTGTCTTGATTCGCTTGACGCTGCTG”, the binding signal (log fluorescence intensity) amounted to 8.86.

In the case of “TCGGGCTACCAGCTCCACCCACTTCAGGCCTTGTAGGTCTTGATTCGCTTGACGCTGCTG”, the binding signal (log fluorescence intensity) came out at 8.76.

On to “GTGTATAGGATCCCATCCAACACACGTGCTAAAATGGTCTTGATTCGCTTGACGCTGCTG”, for which the binding signal (log fluorescence intensity) amounted to 8.85.

On to “TCCGACTACCAGCTCCACCCACTTCAGGCCTTGTAGGTCTTGATTCGCTTGACGCTGCTG”, for which the binding signal (log fluorescence intensity) came to 8.95.

Consider “TGTCGGGTAAGGGAATGTAGATCACGTAAATGAAAAGTCTTGATTCGCTTGACGCTGCTG”, for which the binding signal (log fluorescence intensity) turned out to be 8.85.

On to “TCCGGCTACCAGCTCAACCCACTTCAGGCCTTGTAGGTCTTGATTCGCTTGACGCTGCTG”, for which the binding signal (log fluorescence intensity) is 8.9.

Regarding “TCCGGCTACCAGCTCCACCCGCTTCAGGCCTTGTAGGTCTTGATTCGCTTGACGCTGCTG”, the binding signal (log fluorescence intensity) was 8.71.

As to “GGAAAAAGGCCCAGGGTTACACCGGAAGTGGGCTTAGTCTTGATTCGCTTGACGCTGCTG”, the binding signal (log fluorescence intensity) was determined as 11.

“CAGCATAGGATTTCTTCCCTGAAGCAATTGATAACCGTCTTGATTCGCTTGACGCTGCTG”: the binding signal (log fluorescence intensity) was 8.86.

Take “CTGGGACTTGACCCAATTCTGCCACGTGGGTCGTTTGTCTTGATTCGCTTGACGCTGCTG”: the binding signal (log fluorescence intensity) came out at 8.78.

As to “TGTCGGGTACGGGAATGTAGATCACGTGAATGAAAAGTCTTGATTCGCTTGACGCTGCTG”, the binding signal (log fluorescence intensity) came out at 8.88.

Take “AACTGACTTATATATGCGAATGCACATGAATAGACCGTCTTGATTCGCTTGACGCTGCTG”: the binding signal (log fluorescence intensity) is 8.87.

As to “CACAATTTTTACAGGAATGTAGCACGCGTAACTCCTGTCTTGATTCGCTTGACGCTGCTG”, the binding signal (log fluorescence intensity) worked out at 8.82.

Turning to “TGTCGGGTAAGGGAATGTAGATCGCGTGAATGAAAAGTCTTGATTCGCTTGACGCTGCTG”, the binding signal (log fluorescence intensity) worked out at 8.87.

Take “GCTGCTGCGGTGCATAACCCACCGGATGTGACCCCGGTCTTGATTCGCTTGACGCTGCTG”: the binding signal (log fluorescence intensity) is 10.2.

“TGCGGCTACCAGCTCCACCCACTTCAGGCCTTGTAGGTCTTGATTCGCTTGACGCTGCTG”: the binding signal (log fluorescence intensity) amounted to 8.85.

Regarding “GATTAACTTCTGCCCTTATTCGCACGTGCCATAACAGTCTTGATTCGCTTGACGCTGCTG”, the binding signal (log fluorescence intensity) came out at 9.06.

The values are drawn from paper PMC6602471.
